Assay results as given in PubChem BioAssay AID493208 (National Center for Advancing Translational Sciences (NCATS), 2011).
The whole screen tested about 44,000 compounds, of which about 340 (0.77%) were called active. About 5% were inconclusive and are not listed. Calls follow the shape of the dose curve; as a rule, active = well fitted inhibition curve with a large enough effect; inconclusive = small, poorly fitted or top-dose-only effect; inactive = flat fitted curve, though single readings scatter. Some of the results follow.

Experiment: Acumen qHTS Assay for Inhibitors of the mTORC1 Signaling Pathway in MEF (Tsc2-/-, p53-/-) Cells: Sytravon;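 also: plate controls were DMSO for no effect and rapamycin for full effect; nearly all actives have a fitted effect of over 50% in size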
Details: phospho-rpS6 immunofluorescence/PI, 24 h; series mostly up to 38.3 µM; activity change, negative = inhibition: at the top concentration
Summary of the method: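 Compounds act on Tsc2-/-, p53-/- fibroblasts carrying an empty vector for 24 h before fixation and dual staining for phospho-S6 and DNA (propidium iodide). Values are percentages of cells above a rapamycin-defined pS6/PI threshold.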

Activity change, negative = inhibition, inactive:
CC1CCN(C(=O)CSc2c(C(C)C)cnc3c2c(=O)n(C)c(=O)n3C)CC1 0%
CCOc1ccc(CNS(=O)(=O)c2ccc3[nH]c(=O)ccc3c2)cc1 -4.27%
CCC(=O)Nc1ccc2nc(SCCOc3ccccc3)sc2c1 -4.34%
CCCCOc1ccc(CNC(=O)c2ccc(NC(=O)N3CCCCc4ccccc43)cc2)cc1 -9.59%
CC(=O)Nc1nonc1-c1nnc(SCC(=O)Nc2ccccc2)n1-c1ccccc1 -1.83%
COC(=O)c1ccc(-n2c(CCC(=O)O)ccc2-c2ccc(C)cc2)cc1 -1.89%
CCOC(=O)Cn1c(=O)n(CC2CCCO2)c2nc(-c3cccc(C)c3)nc(C(N)=O)c21 (stereo not given) -5.77%
Cc1ccc(NC(=O)CSc2ncn[nH]2)cc1C -0.703%
CNS(=O)(=O)c1cn(CC(=O)Nc2cccc(OC)c2)cc1S(=O)(=O)NC -5%
Cc1c(Cl)cccc1NC(=O)c1noc2c1CCCC2 0.459%
CCn1c(C)c(C)c2cc(C(=O)NCCCN3CCCCC3)ccc21 -2.41%
Cc1ccc(C)c(N2CCN(Cc3nnc(-c4ccc5c(c4)OCO5)o3)CC2)c1 2.49%
Cn1c(=O)oc2cc(S(=O)(=O)NC(Cc3ccccc3)C(=O)NCc3ccc(F)cc3)ccc21 (stereo not given) -0.849%
COc1ccccc1OC(C)C(=O)Nc1c(C(=O)c2ccc(Cl)cc2)oc2ccccc12 (stereo not given) 1.48%
CCC(=O)N1c2ccccc2CC1C(=O)NCCN1CCN(c2cccc(C(F)(F)F)c2)CC1 (stereo not given) 22.3%
COc1cccc(CNC(=O)c2ccc3c(c2)nnn3C2CCCC2)c1 4.23%
Cc1ccc(N(CC(=O)NCc2ccc(F)cc2)S(=O)(=O)c2c(C)nn(C)c2C)cc1 -4.14%
CCCCSCCCNC(=O)c1cn(C)c2ccc(S(=O)(=O)N3CCCCC3)cc2c1=O -2.62%
COc1ccc(-n2nc(C(=O)Nc3ccc(C)cn3)c3c4ccccc4n(C)c3c2=O)cc1 -1.04%
Cc1ccc(-n2cc(-c3ccccc3)nc2S(=O)(=O)CC(=O)Nc2ccc(F)cc2)cc1 -17.8%
O=C(CNC(=O)c1ccccc1F)OCc1cc(=O)n2ccsc2n1 5.97%
COc1ccccc1C(=O)Nc1nnc(SCc2cc(=O)c3cc(Cl)ccc3[nH]2)s1 -5.83%
COc1ccc(OC)c(NC(=O)Cn2ccc3ccccc3c2=O)c1 2.32%
COc1ccc(NC(=O)c2c(-c3ccc(C)cc3)nnc3ccccc23)cc1Cl -0.562%
CCN(CC)C(=O)Cn1c(=O)n(-c2ccc(OC)cc2OC)c(=O)c2c(C)c(C(=O)N(CC)CC)sc21 -0.216%
Cc1ccc(C)c(N2CCN(C(=O)C3CCCN(S(=O)(=O)c4cccc5nsnc45)C3)CC2)c1 (stereo not given) -11.5%
O=S(=O)(c1ccccc1)c1nc(-c2ccc(Cl)cc2Cl)oc1N1CCCCC1 -14.9%
Cc1ccc(CN2CCN(C3CCN(C(=O)c4ccccc4)CC3)C(=O)C2=O)cc1 -11.2%
Cc1ccc(C(=O)Nc2cccc(O)c2)cc1S(=O)(=O)N1CCCCCC1 8.1%
CCN(CC)CCCNC(=O)c1cn(CC)c2ccc(S(=O)(=O)N3CCc4ccccc4C3)cc2c1=O 1.56%
COc1ccc(CCNC(=O)c2ccc3c(c2)N(Cc2cc(C)ccc2C)C(=O)c2ccccc2S3=O)cc1OC (stereo not given) -2.83%
CCCCOc1ccc(CNC(=O)Cc2ccc(NC(=O)N3CCCCc4ccccc43)cc2)cc1 -1.53%
COc1ccc(-c2nc(SCC(=O)N3CCN(c4ccc(F)cc4)CC3)n[nH]2)cc1 -2.44%
CCn1c(=O)n(-c2ccc(F)cc2)c(=O)c2sc3ccccc3c21 8.54%
CC(C)(C)OC(=O)N1CCC(c2c(C(=O)N3CCN(c4ccccc4)CC3)cnn2-c2ccccc2)CC1 -7.7%
CC(=O)N1CCC2(CC1)OC(=O)C(C)=C2C(=O)Nc1cc(C)ccc1C -0.434%
Cc1cc(Br)ccc1NC(=O)Cn1cnc2sc(C)c(S(=O)(=O)N3CCN(C)CC3)c2c1=O 5.63%
COC(=O)c1sc2cccc(F)c2c1S(=O)(=O)Nc1ccc(N(C)C)cc1 -18.5%
CCCN(C(=O)c1cc2ccc3cccnc3c2[nH]1)c1ccc(F)cc1 4.13%
CC(=O)Nc1ccc(-n2c(CCC(=O)O)ccc2-c2ccc(Br)cc2)cc1 0.708%
COc1ccc(Cl)cc1NC(=O)Cn1c(=O)n(Cc2cccs2)c(=O)c2cccnc21 -0.32%
COc1ccc(CNC(=O)Cc2c(C)c3c(cc(C)c4c(C)coc43)oc2=O)cc1OC -0.0726%
Cc1nc2cccnc2n1C1CCN(S(=O)(=O)N(C)C)CC1 2.25%
COc1ccc(Br)c2c1-c1nc(NC(=O)c3ccccc3F)sc1C2 -7.95%
CCc1ccc(-c2[nH]nc3nc(-c4ccc(OC)cc4)cc(C(=O)NCCCOC)c23)cc1 -9.39%
COC(=O)c1ccccc1NC(=O)c1ccc(COc2cc(C)cc(C)c2)o1 -1.72%
COc1ccc(CCCc2nnc(SCC(=O)Nc3cc(C)ccc3C)o2)cc1 -1.28%
Cc1nc2ccc(S(=O)(=O)N(CC(=O)Nc3cccc(Cl)c3)Cc3ccccc3)cc2s1 1.36%
Cc1nn(CC(=O)NCc2ccc(N(C)C)cc2)c(=O)c2c(C)n(-c3ccc(Cl)cc3)nc12 -11.6%
CCOc1ccc(NC(=O)CCn2c(=O)c3cccn3c3cccnc32)cc1 1.09%
Cc1nn(-c2ccc(F)cc2)c(-n2cccc2)c1C(=O)N1CCN(c2ccccc2)CC1 -12.3%
Cc1cc2nn(-c3ccccc3)nc2cc1NC(=O)COc1ccc(Cl)cc1 -13.9%
CCOc1ccc(Cn2nnc(C(=O)Nc3cccc(SC)c3)c2N)cc1 4%
CCCN(CCC)C(=O)Cn1c(=O)n(-c2ccc(C)c(C)c2)c(=O)c2c3c(sc21)CCCCC3 2.95%
Cc1cc(NC(=O)c2cc(-c3cccc(Cl)c3)on2)nn1Cc1ccc(Cl)cc1 2.37%
CC1CCC(NC(=O)CCc2cn(Cc3ccccc3Cl)c3ccccc23)CC1 (stereo not given) 3.56%
Cc1ncc(CO)c2c1Oc1nc(-c3ccc(F)cc3)nc(SCC(=O)N3CCCCC3)c1C2 3.74%
Cc1ccc(CN2C(=O)N(c3ccc(F)cc3)C(=O)C2CC(=O)Nc2ccc(Cl)cc2)cc1 (stereo not given) -18.1%
COC(=O)CN1C(=O)CSc2ccc(S(=O)(=O)Nc3cccc(Br)c3)cc21 -1.09%
Cc1ccc(NC(=O)CSc2nnc(-c3cc4occc4n3C)n2-c2ccccc2C)c(Cl)c1 -12.5%
